Data: article PMC9827817
No constants are given. Whether binding was seen depends on the method and setting. In cells and extracts the contact can be indirect. Some entries that bind do so weakly or less than the wild type.

Amino acid sequences for entries named in this document (tags omitted).
UniProt Q9ULV4: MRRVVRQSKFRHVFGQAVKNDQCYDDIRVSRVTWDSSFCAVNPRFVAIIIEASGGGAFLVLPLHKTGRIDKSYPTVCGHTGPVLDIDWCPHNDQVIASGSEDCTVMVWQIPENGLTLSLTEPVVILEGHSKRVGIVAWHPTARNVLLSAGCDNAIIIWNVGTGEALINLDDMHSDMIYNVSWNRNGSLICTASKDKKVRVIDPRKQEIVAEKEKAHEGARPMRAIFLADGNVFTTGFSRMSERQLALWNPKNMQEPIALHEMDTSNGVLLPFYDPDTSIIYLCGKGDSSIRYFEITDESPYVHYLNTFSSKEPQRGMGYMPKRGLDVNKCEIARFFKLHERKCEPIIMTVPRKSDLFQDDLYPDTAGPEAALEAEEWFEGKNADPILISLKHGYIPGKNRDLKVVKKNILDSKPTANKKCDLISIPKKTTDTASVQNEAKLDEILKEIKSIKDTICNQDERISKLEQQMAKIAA

Target: CORO1C in gastric cancer cell lysate (human (endogenous in SGC-7901 and BGC-823)) (UniProt Q9ULV4)
Assay: co-IP; gastric cancer cell lysates (25 mM Tris pH 7.6, 150 mM NaCl, 1% Nonidet P-40, 1 mM EDTA); protein A agarose preloaded with antibodies or normal IgG, overnight at 4°C; western blot; some in cells overexpressing PAK4S99A or PAK4S99D

B1: PAK4S99D overexpressed in gastric cancer cells (enzyme, UniProt O96013 1-591)
chain: MFGKRKKRVEISAPSNFEHRVHTGFDQHEQKFTGLPRQWQSLIEESARRPKPLVDPACITSIQPGAPKTIVRGSKGAKDGALTLLLDEFENMSVTRSNDLRRDSPPPPARARQENGMPEEPATTARGGPGKAGSRGRFAGHSEAGGGSGDRRRAGPEKRPKSSREGSGGPQESSRDKRPLSGPDVGTPQPAGLASGAKLAAGRPFNTYPRADTDHPSRGAQGEPHDVAPNGPSAGGLAIPQSSSSSSRPPTRARGAPSPGVLGPHASEPQLAPPACTPAAPAVPGPPGPRSPQREPQRVSHEQFRAALQLVVDPGDPRSYLDNFIKIGEGSTGIVCIATVRSSGKLVAVKKMDLRKQQRRELLFNEVVIMRDYQHENVVEMYNSYLVGDELWVVMEFLEGGALTDIVTHTRMNEEQIAAVCLAVLQALSVLHAQGVIHRDIKSDSILLTHDGRVKLSDFGFCAQVSKEVPRRKSLVGTPYWMAPELISRLPYGPEVDIWSLGIMVIEMVDGEPPYFNEPPLKAMKMIRDNLPPRLKNLHKVSPSLKGFLDRLLVRDPAQRATAAELLKHPFLAKAGPPASIVPLMRQNRTR
- binding: binds
